{
  "source": "paper PMC13286052",
  "about": "(Antimicrobial Agents and Chemotherapy, 2026)",
  "origin": "cited, not measured here",
  "key": {"[1]": {"conditions": "cited from earlier work"}, "[2]": {"conditions": "cited from earlier work", "remark": "listed apart in the source"}},
  "data": [
    {"smiles": "O=C(NCCc1ccc(F)cc1F)c1cn(Cc2ccc(F)cc2)cc(O)c1=O", "note": "[ZW-2038]", "values": [
      {"measurement": "aqueous solubility (in words)", "setting": "[1]", "value": "poor"},
      {"measurement": "plasma stability", "setting": "[2]", "value": "excellent"}
    ]}
  ]
}
